Consider 20 molecules from PMC9911399, “Two distinct binding modes provide the RNA-binding protein RbFox with extraordinary sequence specificity”.

Substitutions are numbered along the chain they refer to; changes in the protein carry UniProt numbers. Some of the results follow.

Sequences and labels used below:
B1: UCAGUUG (DNA:RNA)
RNA: GGGAGACCGGAAUUCAGAUUGUCCUCAGUUGUUAAAUCCCGUCGUAGCCACCA
DNA 1: CAATCTGAATTCCGGTCTCCC
DNA 2: TGGTGGCTACGACGGGATT
B2: GAUGUCG (DNA:RNA)
RNA: B1 RNA with U25G, C26A, A27U, U30C
DNA 1: CAATCTGAATTCCGGTCTCCC
DNA 2: TGGTGGCTACGACGGGATT
B3: UCAACCA (DNA:RNA)
RNA: B1 RNA with G28A, U29C, U30C, G31A
DNA 1: CAATCTGAATTCCGGTCTCCC
DNA 2: TGGTGGCTACGACGGGATT
B4: GGUUUAA (DNA:RNA)
RNA: B1 RNA with U25G, C26G, A27U, G28U, U30A, G31A
DNA 1: CAATCTGAATTCCGGTCTCCC
DNA 2: TGGTGGCTACGACGGGATT
B5: ACACACA (DNA:RNA)
RNA: B1 RNA with U25A, G28C, U29A, U30C, G31A
DNA 1: CAATCTGAATTCCGGTCTCCC
DNA 2: TGGTGGCTACGACGGGATT
B6: AUUUUUC (DNA:RNA)
RNA: B1 RNA with U25A, C26U, A27U, G28U, G31C
DNA 1: CAATCTGAATTCCGGTCTCCC
DNA 2: TGGTGGCTACGACGGGATT
B7: AGAUCAC (DNA:RNA)
RNA: B1 RNA with U25A, C26G, G28U, U29C, U30A, G31C
DNA 1: CAATCTGAATTCCGGTCTCCC
DNA 2: TGGTGGCTACGACGGGATT
B8: AACUACG (DNA:RNA)
RNA: B1 RNA with U25A, C26A, A27C, G28U, U29A, U30C
DNA 1: CAATCTGAATTCCGGTCTCCC
DNA 2: TGGTGGCTACGACGGGATT
B9: ACUAUAA (DNA:RNA)
RNA: B1 RNA with U25A, A27U, G28A, U30A, G31A
DNA 1: CAATCTGAATTCCGGTCTCCC
DNA 2: TGGTGGCTACGACGGGATT
B10: UUAAUCU (DNA:RNA)
RNA: B1 RNA with C26U, G28A, U30C, G31U
DNA 1: CAATCTGAATTCCGGTCTCCC
DNA 2: TGGTGGCTACGACGGGATT
B11: UACGUAC (DNA:RNA)
RNA: B1 RNA with C26A, A27C, U30A, G31C
DNA 1: CAATCTGAATTCCGGTCTCCC
DNA 2: TGGTGGCTACGACGGGATT
B12: UGAUCCU (DNA:RNA)
RNA: B1 RNA with C26G, G28U, U29C, U30C, G31U
DNA 1: CAATCTGAATTCCGGTCTCCC
DNA 2: TGGTGGCTACGACGGGATT
B13: UAGCCGU (DNA:RNA)
RNA: B1 RNA with C26A, A27G, G28C, U29C, U30G, G31U
DNA 1: CAATCTGAATTCCGGTCTCCC
DNA 2: TGGTGGCTACGACGGGATT
B14: CGACGAA (DNA:RNA)
RNA: B1 RNA with U25C, C26G, G28C, U29G, U30A, G31A
DNA 1: CAATCTGAATTCCGGTCTCCC
DNA 2: TGGTGGCTACGACGGGATT
B15: CCCAGGA (DNA:RNA)
RNA: B1 RNA with U25C, A27C, G28A, U29G, U30G, G31A
DNA 1: CAATCTGAATTCCGGTCTCCC
DNA 2: TGGTGGCTACGACGGGATT
B16: GGUUAAC (DNA:RNA)
RNA: GGGAGACCGGAAUUCAGAUUGUCCGGUUAACUUAAAUCCCGUCGUAGCCACCA
DNA 1: CAATCTGAATTCCGGTCTCCC
DNA 2: TGGTGGCTACGACGGGATT
B17: ACUGUGU (DNA:RNA)
RNA: B1 RNA with U25A, A27U, U30G, G31U
DNA 1: CAATCTGAATTCCGGTCTCCC
DNA 2: TGGTGGCTACGACGGGATT
B18: UAACCCU (DNA:RNA)
RNA: B1 RNA with C26A, G28C, U29C, U30C, G31U
DNA 1: CAATCTGAATTCCGGTCTCCC
DNA 2: TGGTGGCTACGACGGGATT
B19: ACCCGAC (DNA:RNA)
RNA: B16 RNA with G25A, G26C, U27C, U28C, A29G
DNA 1: CAATCTGAATTCCGGTCTCCC
DNA 2: TGGTGGCTACGACGGGATT
B20: UCUGAGU (DNA:RNA)
RNA: B1 RNA with A27U, U29A, U30G, G31U
DNA 1: CAATCTGAATTCCGGTCTCCC
DNA 2: TGGTGGCTACGACGGGATT

In this assay the target is T1, RBFOX1 RRM (Homo sapiens, UniProt Q9NWB1 109-208).
T1 sequence: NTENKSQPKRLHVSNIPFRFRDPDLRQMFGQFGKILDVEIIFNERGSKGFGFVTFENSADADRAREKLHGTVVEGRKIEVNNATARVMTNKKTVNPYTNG
Nature of the assay: EMSA; HiTS-Eq, 1 nM pool, 10 min; buffer printed only for the single-RNA assays: 10 mM Tris pH 7.5, 150 mM NaCl, 3.4 mM EDTA, 0.001% NP-40, 30 C. As to conditions: tags: His6 N-terminal (pET28a); label: 5' 32P. The method in brief:
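Relative association constants, normalised to the cognate motif, were derived by comparing read counts of each RNA species with those of the control reaction. The RNA sequenced was the free fraction, separated by 8% native PAGE after a 10 min equilibration in 50 µL of 1 nM 5′-radiolabelled RNA (7 randomized nucleotides) with increasing concentrations of purified wild-type or mutant RbFox RRM.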
Background: In EMSA bound probe runs differently from free probe, usually more slowly.
For the molecule B1, the binding signal is 0.0143 KA relative to UGCAUGU.
B2: the binding signal is 0.0228 KA relative to UGCAUGU.
As for B3, the binding signal is 0.000331 KA relative to UGCAUGU.
B4: the binding signal is 0.00479 KA relative to UGCAUGU.
With B5, the binding signal was 0.00153 KA relative to UGCAUGU.
Take B6: the binding signal is 0.00711 KA relative to UGCAUGU.
Take B7: the binding signal is 0.00415 KA relative to UGCAUGU.
The result for B8 reads 0.00391 KA relative to UGCAUGU; that for B9, 0.000364 KA relative to UGCAUGU.
As for B10, the binding signal is 0.00588 KA relative to UGCAUGU.
Consider B11, for which the binding signal is 0.00843 KA relative to UGCAUGU.
The result for B12 reads 0.0129 KA relative to UGCAUGU.
The result for B13 reads 0.0103 KA relative to UGCAUGU.
Regarding B14, the binding signal is 0.00905 KA relative to UGCAUGU.
In the case of B15 it was 0.00613 KA relative to UGCAUGU; in that of B16, 0.00754 KA relative to UGCAUGU; in that of B17, 0.016 KA relative to UGCAUGU.
The result for B18 reads 0.002 KA relative to UGCAUGU.
In the case of B19 it was 0.00365 KA relative to UGCAUGU; in that of B20, 0.0138 KA relative to UGCAUGU.
